Results: PubChem BioAssay (NCATS)
The inconclusive results got no clear call from the source; some entries with a clear call stand among them for comparison. A potency beside an inconclusive call is a rough fit, not a confirmed value. Activity calls are given as the source filed them. Calls come from the whole dose curve; as a rule, active = well fitted curve in the direction sought with a large enough effect; inconclusive = small, poorly fitted or top-dose-only effect, or another doubt; inactive = no such curve, though single readings can be large; an effect the other way counts as inactive or inconclusive.

Legend:
[1] = qHTS of pediatric cancer cell lines to identify multiple opportunities for drug repurposing: Primary screen for DAOY cells (AID 1347090); details: DAOY medulloblastoma viability, CellTiter-Glo luminescence, 48 h; activity change, negative = cytotoxic: at 46 µM (top of the series); note: nearly all actives have a fitted effect of over 55% in size
Method in brief: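 Viability measured as metabolically active cells via CellTiter-Glo luminescence following 48 hours of compound exposure, 11-point dilutions in confirmatory testing. 500-1,000 cells/well plated 5 hours before dosing; controls were DMSO and 2.3 µM bortezomib.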

[2] = qHTS of pediatric cancer cell lines to identify multiple opportunities for drug repurposing: Primary screen for SK-N-MC cells (AID 1347093); details: SK-N-MC viability, CellTiter-Glo luminescence, 48 h; activity change, negative = cytotoxic: at 46 µM (top of the series)
Method in brief: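 Metabolically active cells were quantified by ATP-dependent luminescence (CellTiter-Glo, 15 min at room temperature) following 48 h treatment. Cells had been plated at 500-1,000 per well and settled for 5 h beforehand.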

[3] = qHTS of pediatric cancer cell lines to identify multiple opportunities for drug repurposing: Primary screen for Saos-2 cells (AID 1347097); note: nearly all actives have a fitted effect of over 40% in size
Method in brief: (§1)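 Cells plated at 500-1,000/well in growth medium, compounds added after 5 h. MIPE tested at 11 points (from 0.78 nM), NPC at 8 points (from 0.59 nM). CellTiter-Glo luminescence after 48 h; concentration-response curves from primary screen.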

[4] = qHTS of pediatric cancer cell lines to identify multiple opportunities for drug repurposing: Primary screen for SK-N-SH cells (AID 1347098); note: nearly all actives have a fitted effect of over 65% in size;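 for activity change, negative = cytotoxic: DMSO served as neutral control and bortezomib at 2.3 µM as positive control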
Method in brief: (§2)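 Cells (500-1,000/well) rested 5 h, then received compounds for 48 h; metabolically active cells were measured by CellTiter-Glo luminescence. Final concentrations spanned up to 46 µM (MIPE, 11-point) or 0.59 nM-46 µM (NPC, 8-point) in primary screens, 11-point in follow-ups.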

[5] = qHTS of pediatric cancer cell lines to identify multiple opportunities for drug repurposing: Primary screen for NB1643 cells (AID 1347099); note: nearly all actives have a fitted effect of over 50% in size
Method in brief: as §1

[6] = qHTS of pediatric cancer cell lines to identify multiple opportunities for drug repurposing: Confirmatory screen for NB1643 cells (AID 1347109); details: NB1643 neuroblastoma cell viability; activity change, negative = cytotoxic: at 45.9 µM (top of the series); note: nearly all actives have a fitted effect of over 45% in size
Method in brief: (§3)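 Viability after 48 h compound treatment at 37C, 500-1,000 cells/well, read as ATP luminescence with CellTiter-Glo. Primary screens used 11-point (MIPE, 0.78 nM-46 µM) or 8-point (NPC, 0.59 nM-46 µM) final concentrations; follow-up screens used 11-point dilutions.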

[7] = qHTS of pediatric cancer cell lines to identify multiple opportunities for drug repurposing: Primary screen for BT-12 cells (AID 1347101); note: nearly all actives have a fitted effect of over 25% in size
Method in brief: as §2

[8] = qHTS of pediatric cancer cell lines to identify multiple opportunities for drug repurposing: Primary screen for OHS-50 cells (AID 1347103); note: nearly all actives have a fitted effect of over 40% in size
Method in brief: as §2

[9] = qHTS of pediatric cancer cell lines to identify multiple opportunities for drug repurposing: Primary screen for RD cells (AID 1347104); note: nearly all actives have a fitted effect of over 55% in size
Method in brief: as §1

[10] = qHTS of pediatric cancer cell lines to identify multiple opportunities for drug repurposing: Primary screen for control Hh wild type fibroblast cells (AID 1347106); note: nearly all actives have a fitted effect of over 55% in size;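 for activity change, negative = cytotoxic: a drop in luminescence marks cytotoxicity and a rise apparent proliferation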
Method in brief: as §3

[11] = qHTS of pediatric cancer cell lines to identify multiple opportunities for drug repurposing: Primary screen for Rh30 cells (AID 1347107); note: nearly all actives have a fitted effect of over 75% in size
Method in brief: as §3

[12] = qHTS of pediatric cancer cell lines to identify multiple opportunities for drug repurposing: Primary screen for Rh41 cells (AID 1347108); note: nearly all actives have a fitted effect of over 70% in size;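 for activity change, negative = cytotoxic: luminescence drop marks cytotoxic hits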
Method in brief: as §1

[13] = qHTS of pediatric cancer cell lines to identify multiple opportunities for drug repurposing: Primary screen for A673 cells (AID 1347092); details: A673 Ewing sarcoma viability, CellTiter-Glo ATP luminescence, 48 h; activity change, negative = cytotoxic: at 46 µM (top of the series); note: nearly all actives have a fitted effect of over 45% in size
Method in brief: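 A673 cells (500-1,000 cells/well in growth media) were pre-incubated 5 h at 37 degrees C, then exposed to compounds for 48 h. Viability was read as CellTiter-Glo luminescence; concentration-response curves came directly from the primary screen.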

[14] = qHTS of pediatric cancer cell lines to identify multiple opportunities for drug repurposing: Primary screen for U-2 OS cells (AID 1347096); note: nearly all actives have a fitted effect of over 50% in size
Method in brief: as §3

[15] = qHTS of pediatric cancer cell lines to identify multiple opportunities for drug repurposing: Primary screen for Rh18 cells (AID 1347102); note: nearly all actives have a fitted effect of over 65% in size
Method in brief: as §3

[16] = qHTS of pediatric cancer cell lines to identify multiple opportunities for drug repurposing: Primary screen for LAN-5 cells (AID 1347100); details: LAN-5 neuroblastoma viability, CellTiter-Glo luminescence, 48 h; activity change, negative = cytotoxic: at 46 µM (top of the series)
Method in brief: as §3

[17] = qHTS of pediatric cancer cell lines to identify multiple opportunities for drug repurposing: Primary screen for MG 63 (6-TG R) cells (AID 1347105); details: MG 63 (6-TG R) viability, CellTiter-Glo, 48 h; activity change, negative = cytotoxic: at 46 µM (top of the series); note: nearly all actives have a fitted effect of over 50% in size
Method in brief: as §1

[18] = qHTS of pediatric cancer cell lines to identify multiple opportunities for drug repurposing: Primary screen for BT-37 cells (AID 1347094)
Method in brief: as §1

[19] = qHTS of pediatric cancer cell lines to identify multiple opportunities for drug repurposing: Primary screen for NB-EBc1 cells (AID 1347095)
Method in brief: as §1

Measured: Potency
Potency is the fitted concentration of half-maximal effect; tags give direction and shape of the fitted curve.

C[C@]12CCC(=O)C=C1CC[C@@H]1[C@H]2[C@@H](O)C[C@@]2(C)[C@H]1CC[C@]2(O)C(=O)CO
inactive: [1] | [2] | [3] | [6]
inconclusive: [4] 24.1 µM [cytotoxic, partial curve] | [5] 37.2 µM [cytotoxic, single point]

COC1=C2C[C@@H](C)C[C@H](OC)[C@@H](O)[C@@H](C)C=C(C)[C@H](OC(N)=O)[C@@H](OC)C=CC=C(C)C(=O)NC(=CC1=O)C2=O
inconclusive: [1] 7.43 µM [cytotoxic, full curve] | [10] 5.9 µM [cytotoxic, full curve] | [11] 14.8 µM [cytotoxic, partial curve]
active: [2] 1.05 µM | [4] 2.41 µM | [7] 6.11 µM | [8] 6.85 µM | [9] 5.26 µM | [12] 7.43 µM

O=C(O)c1ccc2c(c1)nc(Nc1cccc(Cl)c1)c1ccncc12
active: [1] 4.69 µM | [13] 4.69 µM | [14] 18.7 µM | [3] 4.69 µM | [15] 14.8 µM | [9] 9.35 µM | [12] 14.8 µM
inconclusive: [11] 18.7 µM [cytotoxic, partial curve]

N#Cc1c(NC(=O)c2cccc3ccccc23)sc2c1CCCC2
inconclusive: [14] 2.35 µM [cytotoxic, full curve] | [4] 0.242 µM [cytotoxic, full curve] | [15] 0.105 µM [cytotoxic, partial curve, poor fit] | [9] 0.296 µM [cytotoxic, full curve] | [17] 0.187 µM [cytotoxic, full curve] | [10] 0.833 µM [cytotoxic, full curve, poor fit] | [12] 0.372 µM [cytotoxic, full curve] | [6] 0.465 µM [cytotoxic, full curve]
active: [1] 0.296 µM | [13] 0.235 µM | [3] 0.132 µM | [16] 0.148 µM

CC(C)[N+]1(C)[C@@H]2CC[C@H]1CC(OC(=O)C(CO)c1ccccc1)C2 (some centres not stated)
inconclusive: [1] 23.5 µM [cytotoxic, single point] | [15] 26.4 µM [cytotoxic, single point] | [8] 3.06 µM [cytotoxic, full curve] | [11] 33.2 µM [cytotoxic, partial curve, poor fit] | [12] 18.7 µM [cytotoxic, partial curve]
inactive: [4]
active: [2] 9.35 µM | [9] 29.6 µM

CC1CNc2c(cccc2S(=O)(=O)N[C@@H](CCCN=C(N)N)C(=O)N2CC[C@@H](C)C[C@@H]2C(=O)O)C1 (some centres not stated)
active: [13] 5.9 µM | [5] 5.26 µM
inconclusive: [1] 11.8 µM [cytotoxic, partial curve, poor fit] | [3] 23.5 µM [cytotoxic, partial curve] | [7] 24.3 µM [cytotoxic, partial curve] | [9] 13.2 µM [cytotoxic, partial curve, poor fit] | [10] 11.8 µM [cytotoxic, partial curve, poor fit] | [6] 11.7 µM [cytotoxic, partial curve, poor fit]
inactive: [14] | [8]

CCn1c(=O)c2c(nc(C=Cc3ccc(OC)c(OC)c3)n2C)n(CC)c1=O
inconclusive: [13] 23.5 µM [cytotoxic, single point] | [4] 4.29 µM [cytotoxic, full curve] | [5] 18.7 µM [cytotoxic, partial curve] | [8] 43.2 µM [cytotoxic, partial curve, poor fit] | [9] 13.2 µM [cytotoxic, partial curve] | [12] 18.7 µM [cytotoxic, partial curve, poor fit]
inactive: [1]

c1ccc([C@H]2CN3CCSC3=N2)cc1
inconclusive: [5] 20.9 µM [cytotoxic, single point]
inactive: [1] | [13] | [3]

Nc1ccn(C2CO[C@H](CO)O2)c(=O)n1 (some centres not stated)
inactive: [1] | [13] | [14] | [12]

CCCS(=O)(=O)Nc1ccc(F)c(C(=O)c2c[nH]c3ncc(Cl)cc23)c1F
active: [2] 4.18 µM | [9] 18.7 µM
inconclusive: [1] 14.8 µM [cytotoxic, partial curve] | [18] 21.7 µM [cytotoxic, partial curve] | [19] 16.6 µM [cytotoxic, partial curve, poor fit] | [14] 18.7 µM [cytotoxic, partial curve, poor fit] | [16] 26.4 µM [cytotoxic, single point] | [7] 24.3 µM [cytotoxic, partial curve] | [15] 16.6 µM [cytotoxic, partial curve] | [17] 9.35 µM [cytotoxic, full curve] | [10] 20.9 µM [cytotoxic, single point] | [11] 16.6 µM [cytotoxic, partial curve]

Cc1cc2c(F)c(Oc3ncnn4cc(OC[C@@H](C)O)c(C)c34)ccc2[nH]1
inconclusive: [1] 14.8 µM [cytotoxic, partial curve] | [13] 2.96 µM [cytotoxic, full curve, poor fit] | [14] 5.9 µM [cytotoxic, partial curve, poor fit] | [15] 18.7 µM [cytotoxic, partial curve] | [9] 5.26 µM [cytotoxic, partial curve] | [11] 14.8 µM [cytotoxic, partial curve] | [12] 18.7 µM [cytotoxic, partial curve]
active: [4] 24.1 µM

O=C(Nc1ncc(SCCN2CCCC2)s1)[C@]1(c2ccc(S(=O)(=O)C3CC3)cc2)C[C@@H]1C1CCCCC1
inconclusive: [1] 23.5 µM [cytotoxic, single point] | [5] 26.4 µM [cytotoxic, single point]
inactive: [10]
active: [13] 18.7 µM | [14] 23.5 µM | [7] 27.3 µM | [15] 20.9 µM | [8] 24.3 µM | [11] 20.9 µM

COc1c(C)c2c(c(O)c1CC=C(C)CCC(=O)OCCN1CCOCC1)C(=O)OC2
inconclusive: [1] 1.48 µM [cytotoxic, full curve] | [13] 1.87 µM [cytotoxic, full curve] | [14] 4.69 µM [cytotoxic, full curve, poor fit] | [4] 7.64 µM [cytotoxic, partial curve] | [5] 1.18 µM [cytotoxic, full curve] | [8] 1.37 µM [cytotoxic, full curve] | [9] 5.26 µM [cytotoxic, partial curve] | [17] 1.18 µM [cytotoxic, full curve] | [10] 8.33 µM [cytotoxic, full curve, poor fit]

CNC(=O)c1cccc(-c2ccc3c(N4CCOC[C@H]4C)nc(N4CCOC[C@H]4C)nc3n2)c1
inconclusive: [1] 0.187 µM [cytotoxic, full curve] | [14] 0.469 µM [cytotoxic, full curve] | [4] 0.681 µM [cytotoxic, partial curve] | [5] 0.296 µM [cytotoxic, full curve] | [7] 0.0306 µM [cytotoxic, full curve] | [10] 0.209 µM [cytotoxic, full curve] | [11] 1.48 µM [cytotoxic, partial curve] | [6] 4.65 µM [cytotoxic, partial curve]
active: [13] 0.148 µM | [3] 0.833 µM | [8] 0.0685 µM | [12] 0.118 µM

Clc1ccc(COC(Cn2ccnc2)c2ccc(Cl)cc2Cl)c(Cl)c1 (configuration not stated)
inconclusive: [1] 23.5 µM [cytotoxic, single point] | [2] 18.7 µM [cytotoxic, single point] | [18] 24.3 µM [cytotoxic, partial curve] | [19] 20.9 µM [cytotoxic, partial curve] | [14] 18.7 µM [cytotoxic, partial curve] | [3] 16.6 µM [cytotoxic, partial curve, poor fit] | [5] 29.6 µM [cytotoxic, single point] | [7] 24.3 µM [cytotoxic, partial curve] | [15] 16.6 µM [cytotoxic, partial curve] | [9] 33.2 µM [cytotoxic, single point] | [17] 37.2 µM [cytotoxic, single point] | [11] 4.69 µM [cytotoxic, partial curve] | [12] 23.5 µM [cytotoxic, partial curve]
inactive: [10]
